At least one read-out could not be matched to a standard name with certainty. Marks after values point to notes of the source that are not given here.
tested on: CaSki cells; test: Colony Formation Assay (CFA), 14 days; format: cell-based, human; conditions: colony formation assay, class by % inhibition at 0.7, 6 or 50 μM
Excerpt: Cell culture: CaSki cells were obtained from CLS GmbH, Eppelheim, Germany (cat. 300145) and subcultured in ready-to-use RPMI1640 Media (CLS GmbH cat. 820700) after addition of “Antibiotic Antimycotic Solution” (Sigma-Aldrich, St Louis, USA, cat. A5955) at 1:100 dilution. CaSki cells were expanded and aliquots kept frozen in liquid nitrogen according to manufacturer's instructions. Once thawed, aliquots were passaged every second or third day at a seed density of 20′000 cells/cm^2; and used for a maximum of twenty passages.
Preparation of the cells for CFA: Cell culture flasks were rinsed twice with Ca++/Mg++-free Phosphate-Buffered Saline (DPBS, CLS GmbH cat. 860015) and incubated with Accutase (CLS GmbH cat. 830100) for 15 min at 37° C. Cells were resuspended in a four-fold volume of ready-to use RPMI, centrifuged at 300 g for 10 minutes, the supernatant discarded and the cells resuspended in ready-to-use RPMI1640 by pipetting up and down ten times with a serological pipette. Cell density was determined with a Via-1 Cassette (Chemometec, Allerod, Denmark) on a Nucleocounter NC 3000 (Chemometec). The required amount of cells was first diluted 1:10 in ready-to-use RPMI; cells pipetted five times up-down with a serological pipette; and the 1:10 solution added to the final volume needed for the whole assay setup. Cells were mixed again by pipetting up and down twenty times with a serological pipette. The final cell density was 70 cells/ml.
Seeding: Cells were seeded column-wise in 6-well plates, while triplicates were treated row-wise. Three ml cell suspension solution (210 cells) were added per well.
Treatment: Compound stock solutions were prepared at a concentration of 30 mM in 50% DMSO/50% water; and diluted in the same solution so that the volume added to the wells was of 5 μl and the final DMSO well concentration 0.08%. Untreated cells (negative controls) were incubated in a) medium only; and b) 0.08% DMSO. […] Tests showing less than 75% or more than 95% inhibition were repeated. The plates were swirled gently after addition of the compounds and the cells incubated for 14 days at 37° C. Culture incubation solutions were replaced after one week.
Staining: Colonies were washed twice with ice-cold DPBS and fixed on ice with 1 ml ice-cold 10% methanol solution for 30 min. The methanol solution was removed and colonies incubated with 0.1% Crystal Violet/DBPS for 20 min at room temperature. The wells were rinsed with water at room temperature, let dry and colonies were counted. Compounds e.g., compounds of Table 2 and 3 were classified as follows: […]

Row | SMILES | Activity (inhibition of colony formation)
1 | CCCC1CCN(C(=O)[C@H](CC(C)C)N2CCN[C@@H](CC(C)C)C2=O)CC1 [Compound 47, (S)-1-{(S)-3-Methyl-1-[(4-propyl-1-piperidyl)car-bonyl]butyl}-3-isobutyl-2-piperazinone] | +++ (more than 90% inhibition of colony formation at a concentration of 50 μM)
2 | CNC(=O)CC1CCN(C(=O)[C@H](CC(C)C)N2CCN[C@@H](CC(C)C)C2=O)CC1 [Compound 6, (S)-1-[(S)-3-Methyl-1-({4-[2-(methylamino)-2-oxoethyl]-1-piperidyl}car-bonyl)butyl]-3-isobutyl-2-piperazinone] | +* (greater than 0% but less than or equal to 50% inhibition of colony formation at a concentration of 50 μM)
3 | CC(C)C[C@@H]1NCCN([C@@H](Cc2ccccc2)C(=O)N2CCC(CC(N)=O)CC2)C1=O [Compound 88, (1-{(S)-2-[(S)-3-Isobutyl-2-oxo-1-piperazinyl]-3-phenylpropionyl}-4-piperidyl)acetamide] | ++ (more than 50% inhibition of colony formation at a concentration of 50 μM)
4 | CCCC[C@@H]1NCCN([C@@H](CC(C)C)C(=O)N2CCC(CC(N)=O)CC2)C1=O [Compound 110, (1-{(S)-2-[(S)-3-Butyl-2-oxo-1-piperazinyl]-4-methylvaleryl}-4-piperidyl)acetamide] | +* (greater than 0% but less than or equal to 50% inhibition of colony formation at a concentration of 50 μM)
5 | CC(C)C[C@H]1C(=O)N([C@@H](CC(C)C)C(=O)N2CCC(CCN3CCC(C)CC3)CC2)CCN1C [Compound 268, (S)-1-[(S)-3-Methyl-1-({4-[2-(4-methyl-1-piperidyl)ethyl]-1-piperidyl}car-bonyl)butyl]-3-isobutyl-4-methyl-2-piperazinone] | ++++ (more than 90% inhibition of colony formation at a concentration of 6 μM)
6 | Cc1nc(CC2CCN(C(=O)[C@H](CC(C)C)N3CCN[C@@H](CC(C)C)C3=O)CC2)n(C2CC2)c1C [Compound 37, (S)-1-[(S)-1-({4-[(1-Cyclopropyl-4,5-dimethyl-1H-imidazol-2-yl)methyl]-1-piperidyl}carbonyl)-3-methylbutyl]-3-isobutyl-2-piperazinone] | +++ (more than 90% inhibition of colony formation at a concentration of 50 μM)
7 | CC(C)C[C@@H]1NCCN([C@@H](CC(C)C)C(=O)N2CCC3(CC2)CC(N(C)C)CCO3)C1=O (stereo partly drawn) [Compound 261, (S)-1-[(S)-1-({4-(Dimethylamino)-1-oxa-9-aza-9-spiro[5.5]un-decyl}carbonyl)-3-methylbutyl]-3-isobutyl-2-piperazinone] | +++ (more than 90% inhibition of colony formation at a concentration of 50 μM)
8 | CCN(C(=O)CC1CCN(C(=O)[C@H](C(C)C)N2CCN[C@@H](CC(C)C)C2=O)CC1)C(C)C [Compound 50] | +* (greater than 0% but less than or equal to 50% inhibition of colony formation at a concentration of 50 μM)
9 | CCC[C@@H](C(=O)N1CCC(CC(N)=O)CC1)N1CCN[C@@H](CC2CC2)C1=O [Compound 92, (1-{(S)-2-[(S)-3-(Cyclopropylmethyl)-2-oxo-1-piperazinyl]valeryl}-4-piperidyl)acetamide] | +* (greater than 0% but less than or equal to 50% inhibition of colony formation at a concentration of 50 μM)
10 | CCCC[C@@H]1NCCN([C@@H](CCC)C(=O)N2CCC(CC(N)=O)CC2)C1=O [Compound 108, (1-{(S)-2-[(S)-3-Butyl-2-oxo-1-piperazinyl]valeryl}-4-piperidyl)acetamide] | +* (greater than 0% but less than or equal to 50% inhibition of colony formation at a concentration of 50 μM)
11 | CC(C)C[C@H]1C(=O)N([C@@H](CC(C)C)C(=O)N2CCC(CCN(C)C)CC2)CCN1CCCCCNC(=O)CCCC[C@@H]1SCC2NC(=O)NC21 (stereo partly drawn) [Compound 52, (6S)-6-(5-{5-[(S)-4-[(S)-1-({4-[2-(Dimethylamino)eth-yl]-1-piperidyl}carbonyl)-3-methylbutyl]-2-isobutyl-3-oxo-1-piperazinyl]pentyla-mino}-5-oxopentyl)-7-thia-2.4-diazabicyclo[3.3.0] octan-3-one] | ++ (more than 50% inhibition of colony formation at a concentration of 50 μM)
12 | CCC[C@@H]1NCCN([C@@H](CC2CC2)C(=O)N2CCC(CC(N)=O)CC2)C1=O [Compound 132, (1-{(S)-2-[(S)-2-Oxo-3-propyl-1-piperazinyl]-3-cyclopropylpro-pionyl}-4-piperidyl)acetamide] | +* (greater than 0% but less than or equal to 50% inhibition of colony formation at a concentration of 50 μM)

same assay, conditions: inhibition of colony formation, 14 days, classes at 6, 50 or 0.7 μM

Row | SMILES | Activity
13 | CC(C)C[C@@H]1NCCN([C@@H](CC(C)C)C(=O)N2CCC(CC(=O)N3CCCC3)CC2)C1=O [Compound 147, (S)-1-[(S)-3-Methyl-1-({4-[2-oxo-2-(1-pyrrolidinyl)ethyl]-1-piperidyl}car-bonyl)butyl]-3-isobutyl-2-piperazinone] | ++ (more than 50% inhibition of colony formation at a concentration of 50 μM)
14 | CC(C)C[C@@H]1NCCN([C@@H](C)C(=O)N2CCC(CCN)CC2)C1=O [Compound 139, (S)-1-{(S)-2-[4-(2-Aminoethyl)-1-piperidyl]-1-methyl-2-oxoethyl}-3-isobutyl-2-piperazinone] | +* (greater than 0% but less than or equal to 50% inhibition of colony formation at a concentration of 50 μM)
15 | CC(C)C[C@@H]1NCCN([C@@H](CC(C)C)C(=O)N2CCC(C(=O)OCCC3CCCC3)CC2)C1=O [Compound 220, 2-Cyclopentylethyl 1-{(S)-2-[(S)-3-isobutyl-2-oxo-1-piperazinyl]-4-methylvaleryl}-4-piperidinecarboxylate] | +* (greater than 0% but less than or equal to 50% inhibition of colony formation at a concentration of 50 μM)
16 | CC(C)C[C@@H]1NCCN([C@@H](CC(C)C)C(=O)N2CCC(CCc3nccn3C)CC2)C1=O [Compound 160, (S)-1-[(S)-3-Methyl-1-({4-[2-(1-methyl-1H-imidazol-2-yl)ethyl]-1-piperidyl}car-bonyl)butyl]-3-isobutyl-2-piperazinone] | +++ (more than 90% inhibition of colony formation at a concentration of 50 μM)
17 | CC(C)C[C@@H]1NCCN([C@@H](CC(C)C)C(=O)N2CCC(CC(=O)OCCO)CC2)C1=O [Compound 203, 2-Hydroxyethyl (1-{(S)-2-[(S)-3-isobutyl-2-oxo-1-piperazinyl]-4-methylvaleryl}-4-piperidyl)acetate] | ++ (more than 50% inhibition of colony formation at a concentration of 50 μM)
18 | CC(C)C[C@@H]1NCCN([C@@H](CC(C)C)C(=O)N2CCC(COc3cccc(Cl)c3)CC2)C1=O [Compound 223, (S)-1-[(S)-1-({4-[(m-Chlorophenoxy)meth-yl]-1-piperidyl}car-bonyl)-3-methylbutyl]-3-isobutyl-2-piperazinone] | +++ (more than 90% inhibition of colony formation at a concentration of 50 μM)
19 | CC(C)C[C@@H]1NCCN([C@@H](CC(C)C)C(=O)N2CCC3(C[C@@H]2C)OCC(CN2CCC4(CC2)CC4)CO3)C1=O (stereo partly drawn) [Compound 316, (S)-1-[(S)-1-{[(S)-3-{(6-Aza-6-spiro[2.5]octyl)methyl}-8-methyl-1,5-dioxa-9-aza-9-spiro[5.5]undecyl]car-bonyl}-3-methylbutyl]-3-isobutyl-2-piperazinone] | ++++ (more than 90% inhibition of colony formation at a concentration of 6 μM)
20 | CCN(C(=O)CC1CCN(C(=O)[C@H](CC(C)C)N2CCN[C@@H](CC(C)C)C2=O)CC1)C(C)C [Compound 194, (S)-1-[(S)-1-[(4-{2-[N-Ethyl(isopropyl)amino]-2-oxoethyl}-1-piperidyl)carbonyl]-3-methylbutyl]-3-isobutyl-2-piperazinone] | ++ (more than 50% inhibition of colony formation at a concentration of 50 μM)
21 | CC(C)C[C@@H]1NCCN([C@@H](CC(C)C)C(=O)N2CCC(CC(=O)OCc3ccccc3)CC2)C1=O [Compound 207, Benzyl (1-{(S)-2-[(S)-3-isobutyl-2-oxo-1-piperazinyl]-4-methylvaleryl}-4-piperidyl)acetate] | ++ (more than 50% inhibition of colony formation at a concentration of 50 μM)
22 | CC(C)CCN(C)C(=O)CC1CCN(C(=O)[C@H](CC(C)C)N2CCN[C@@H](CC(C)C)C2=O)CC1 [Compound 186, (S)-1-[(S)-1-[(4-{2-[N-Methyl(isopentyl)a-mino]-2-oxoethyl}-1-piperidyl)carbonyl]-3-methylbutyl]-3-isobutyl-2-piperazinone] | ++ (more than 50% inhibition of colony formation at a concentration of 50 μM)
